The target in experiment [1] is T1, 1xFLAG-CASZ1b (human) (UniProt Q86V15).
T1 sequence: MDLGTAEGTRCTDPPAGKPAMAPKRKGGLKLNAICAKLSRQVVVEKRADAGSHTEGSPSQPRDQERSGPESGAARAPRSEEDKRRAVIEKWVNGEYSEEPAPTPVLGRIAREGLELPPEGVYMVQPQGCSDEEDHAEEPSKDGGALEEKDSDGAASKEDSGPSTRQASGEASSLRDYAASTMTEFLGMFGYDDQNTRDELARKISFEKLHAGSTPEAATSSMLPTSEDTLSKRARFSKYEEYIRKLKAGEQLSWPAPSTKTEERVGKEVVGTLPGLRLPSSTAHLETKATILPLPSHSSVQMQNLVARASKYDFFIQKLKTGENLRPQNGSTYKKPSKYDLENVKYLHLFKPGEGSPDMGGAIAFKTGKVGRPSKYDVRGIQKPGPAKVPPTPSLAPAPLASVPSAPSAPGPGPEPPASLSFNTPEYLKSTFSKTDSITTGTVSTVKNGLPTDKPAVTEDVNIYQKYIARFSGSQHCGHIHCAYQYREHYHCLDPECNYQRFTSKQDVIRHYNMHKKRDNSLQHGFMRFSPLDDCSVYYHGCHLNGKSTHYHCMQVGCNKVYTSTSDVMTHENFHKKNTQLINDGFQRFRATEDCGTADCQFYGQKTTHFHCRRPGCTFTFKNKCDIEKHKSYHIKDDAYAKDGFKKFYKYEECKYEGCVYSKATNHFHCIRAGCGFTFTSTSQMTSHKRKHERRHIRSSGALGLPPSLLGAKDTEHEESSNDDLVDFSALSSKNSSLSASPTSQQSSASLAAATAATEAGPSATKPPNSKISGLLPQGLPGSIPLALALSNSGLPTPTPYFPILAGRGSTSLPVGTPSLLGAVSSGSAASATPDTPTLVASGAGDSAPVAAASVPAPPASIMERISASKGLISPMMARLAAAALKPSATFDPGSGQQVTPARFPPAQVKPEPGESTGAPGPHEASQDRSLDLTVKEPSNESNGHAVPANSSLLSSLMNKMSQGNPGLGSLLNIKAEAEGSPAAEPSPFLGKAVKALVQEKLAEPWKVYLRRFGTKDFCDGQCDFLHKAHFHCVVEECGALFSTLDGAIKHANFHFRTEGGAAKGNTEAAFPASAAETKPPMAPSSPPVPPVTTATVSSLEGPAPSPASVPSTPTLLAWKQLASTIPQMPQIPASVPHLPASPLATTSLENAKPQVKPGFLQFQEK
The experiment in a line: co-IP; HEK293T transiently transfected with 1xFLAG-CASZ1b, its mutants or empty vector; whole cell extract (200 mM NaCl, 1% Triton X-100, benzonase), ANTI-FLAG M2 magnetic beads 4 hr at 4°C, western blot; in Figure 6B with or without PARP inhibitor AZD2281 (50 μM, 24 hr).

Amino acid sequences for entries named in this document (tags omitted).
UniProt P04406: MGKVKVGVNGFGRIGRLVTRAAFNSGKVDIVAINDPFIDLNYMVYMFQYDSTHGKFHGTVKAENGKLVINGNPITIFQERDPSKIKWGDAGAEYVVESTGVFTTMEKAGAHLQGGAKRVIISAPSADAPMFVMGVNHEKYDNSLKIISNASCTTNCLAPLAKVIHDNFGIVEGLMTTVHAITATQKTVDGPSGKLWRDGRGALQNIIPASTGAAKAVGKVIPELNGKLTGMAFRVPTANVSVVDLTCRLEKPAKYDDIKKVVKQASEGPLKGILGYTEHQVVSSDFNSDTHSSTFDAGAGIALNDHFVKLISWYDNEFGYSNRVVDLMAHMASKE
UniProt P18887: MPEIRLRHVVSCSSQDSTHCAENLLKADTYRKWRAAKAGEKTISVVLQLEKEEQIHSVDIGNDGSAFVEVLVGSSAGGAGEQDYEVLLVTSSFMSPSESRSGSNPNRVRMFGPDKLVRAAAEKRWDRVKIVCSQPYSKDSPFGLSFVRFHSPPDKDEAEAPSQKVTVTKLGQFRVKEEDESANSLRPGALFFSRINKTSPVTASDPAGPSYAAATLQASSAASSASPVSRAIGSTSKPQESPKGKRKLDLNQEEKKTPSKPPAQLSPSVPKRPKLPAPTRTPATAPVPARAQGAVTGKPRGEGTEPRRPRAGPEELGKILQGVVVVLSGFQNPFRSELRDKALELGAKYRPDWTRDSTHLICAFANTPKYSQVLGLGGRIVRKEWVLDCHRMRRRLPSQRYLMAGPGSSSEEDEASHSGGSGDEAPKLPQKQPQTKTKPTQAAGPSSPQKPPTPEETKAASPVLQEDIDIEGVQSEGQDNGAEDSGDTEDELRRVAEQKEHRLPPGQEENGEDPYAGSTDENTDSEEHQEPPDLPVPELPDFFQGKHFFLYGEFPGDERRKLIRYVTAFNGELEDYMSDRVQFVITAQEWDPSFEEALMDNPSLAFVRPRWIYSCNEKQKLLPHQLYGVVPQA

The target in experiment [2] is T2, FLAG-CASZ1b N-terminus deletion mutant without AA 1-185 (human) (UniProt Q86V15).
T2 sequence: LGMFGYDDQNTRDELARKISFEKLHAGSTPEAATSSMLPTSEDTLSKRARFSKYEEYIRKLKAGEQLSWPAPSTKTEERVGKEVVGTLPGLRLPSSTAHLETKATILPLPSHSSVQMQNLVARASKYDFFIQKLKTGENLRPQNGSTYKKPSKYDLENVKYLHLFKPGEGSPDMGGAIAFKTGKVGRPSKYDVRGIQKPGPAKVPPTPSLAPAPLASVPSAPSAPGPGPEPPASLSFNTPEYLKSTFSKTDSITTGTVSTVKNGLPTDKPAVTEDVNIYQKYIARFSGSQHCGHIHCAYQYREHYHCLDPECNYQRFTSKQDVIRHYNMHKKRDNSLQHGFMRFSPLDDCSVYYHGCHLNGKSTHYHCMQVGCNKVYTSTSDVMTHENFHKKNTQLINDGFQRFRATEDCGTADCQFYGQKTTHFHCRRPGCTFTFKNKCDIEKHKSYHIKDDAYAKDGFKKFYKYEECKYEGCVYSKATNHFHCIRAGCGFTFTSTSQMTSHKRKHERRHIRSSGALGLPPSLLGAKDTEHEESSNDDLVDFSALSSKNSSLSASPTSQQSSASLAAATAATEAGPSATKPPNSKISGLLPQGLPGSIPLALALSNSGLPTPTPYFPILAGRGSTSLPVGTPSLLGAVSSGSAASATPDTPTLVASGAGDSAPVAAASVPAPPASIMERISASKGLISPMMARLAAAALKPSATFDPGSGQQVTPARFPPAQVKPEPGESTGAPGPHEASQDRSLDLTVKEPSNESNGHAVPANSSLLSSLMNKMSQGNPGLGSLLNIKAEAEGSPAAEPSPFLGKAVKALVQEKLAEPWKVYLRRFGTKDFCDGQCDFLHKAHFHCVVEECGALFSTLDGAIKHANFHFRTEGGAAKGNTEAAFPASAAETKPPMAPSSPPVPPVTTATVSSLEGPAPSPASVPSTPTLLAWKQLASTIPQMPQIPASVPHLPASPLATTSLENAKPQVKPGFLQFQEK
The experiment is described as above.

Experiment [3] has as its target T3, FLAG-CASZ1b with deletion of AA101-185 (human) (UniProt Q86V15).
T3 sequence: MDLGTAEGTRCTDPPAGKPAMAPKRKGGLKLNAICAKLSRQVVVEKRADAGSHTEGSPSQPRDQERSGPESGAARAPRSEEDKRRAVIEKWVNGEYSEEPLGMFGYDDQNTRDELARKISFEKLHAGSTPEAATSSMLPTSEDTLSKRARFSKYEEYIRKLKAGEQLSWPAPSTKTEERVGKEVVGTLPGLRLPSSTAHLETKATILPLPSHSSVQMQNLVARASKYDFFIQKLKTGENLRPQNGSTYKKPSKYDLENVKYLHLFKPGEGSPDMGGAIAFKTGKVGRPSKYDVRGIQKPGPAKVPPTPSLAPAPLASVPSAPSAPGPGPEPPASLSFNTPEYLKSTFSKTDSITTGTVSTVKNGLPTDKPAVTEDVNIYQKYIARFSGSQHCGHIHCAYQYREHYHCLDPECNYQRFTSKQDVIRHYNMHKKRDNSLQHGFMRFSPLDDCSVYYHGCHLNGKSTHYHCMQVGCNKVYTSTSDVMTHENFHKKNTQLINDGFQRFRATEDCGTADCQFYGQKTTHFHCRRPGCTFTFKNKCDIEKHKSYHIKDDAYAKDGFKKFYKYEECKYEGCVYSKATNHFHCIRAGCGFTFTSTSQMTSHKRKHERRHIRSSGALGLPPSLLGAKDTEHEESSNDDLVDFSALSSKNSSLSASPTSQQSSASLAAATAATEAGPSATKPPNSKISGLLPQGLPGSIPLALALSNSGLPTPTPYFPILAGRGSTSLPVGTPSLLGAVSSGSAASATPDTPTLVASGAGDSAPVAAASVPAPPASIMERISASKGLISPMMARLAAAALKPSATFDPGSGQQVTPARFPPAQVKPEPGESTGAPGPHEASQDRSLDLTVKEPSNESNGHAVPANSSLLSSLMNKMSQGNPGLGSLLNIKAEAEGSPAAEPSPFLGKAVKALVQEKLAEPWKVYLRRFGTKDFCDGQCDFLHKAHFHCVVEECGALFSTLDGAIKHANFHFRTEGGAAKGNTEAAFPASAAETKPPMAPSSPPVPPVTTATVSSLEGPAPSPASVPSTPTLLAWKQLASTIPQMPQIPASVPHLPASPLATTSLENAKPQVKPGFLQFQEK
Described as above.

Experiment [4] concerns the target T1, 1xFLAG-CASZ1b (human). The experiment in a line: condition: only with PARP inhibitor AZD2281, 50 μM, 24 hr; co-IP; HEK293T transfected with FLAG-CASZ1b for 5.5 hr, then PARP inhibitor AZD2281 (50 μM) for 24 hr; anti-FLAG co-IP, western blot.

Results are given in words; binding and its absence hold for the method and conditions named. Binding seen in cells or lysates may run through a third protein. Some results given as binding are weak or reduced against the parent protein; the word gives no strength. Tags and fused reporters may be left off the sequences shown.

For the substance “GAPDH (HEK293T) (from UniProt P04406 1-335)”, the binding result (in the experiment with 1xFLAG-CASZ1b (human) [1]; in experiment [2]; in experiment [3]) was “no binding” throughout.

For “XRCC1 (HEK293T) (from UniProt P18887 1-633)”, the values for the binding entry with 1xFLAG-CASZ1b (human) [4] and in the experiment with 1xFLAG-CASZ1b (human) [1] were “no binding” and “binds”, respectively.

Source of the values: publication PMC4695013.
